The whole screen tested about 150,000 compounds, of which about 540 (0.36%) showed an effect of 50% or more. This is one part of the list.
These compounds were tested on Plasmodium falciparum (assay: Primary screen in NF54 nanoGlo assay, in single point, at 2uM, 72h; a lower Z score goes with more inhibition). Settings: timepoint 72 hour.
Format: functional, Erythrocyte

Point of comparison: `N#CCc1ccc(OC(F)(F)F)cc1`, “% Inhibition” value -9%. Against it:
- O=C(COC[C@H]1CCCO1)NC1CCN(Cc2ccccc2)CC1 — higher, -2%
- NC(=O)c1c(NC(=O)c2cccnc2)sc2c1CCCCC2 — higher, 1%
- Cc1cccc(NS(=O)(=O)N2CCC3(CCCCC3)CC2)c1C(N)=O — lower, -11%
- O=C(COc1ccccc1)N1CC(C(=O)N2CCN(c3ccccc3F)CC2)CC(c2ccccc2)C1 (stereo not given) — higher, -7%
- COCC(C)C(=O)N1CCNC(=O)CC1c1ccccc1 (stereo not given) — lower, -20%
- CC1c2cccn2CCN1CC(=O)N(C1CCCC1)C1CCS(=O)(=O)C1 (stereo not given) — higher, -7%
- O=C(NCc1ccnc(NC2CC2)c1)c1ncccc1Br — lower, -14%
- CC(C)(C)c1csc(N=C2CCCN2)n1 — higher, -4%
- CCn1ccc(C(=O)NC[C@](O)(CC)CCCO)cc1=O — lower, -11%
- O=C(NCCn1cccn1)c1cccc(S(=O)(=O)N2CCCOCC2)c1 — higher, -8%
- C[C@@H]1OC2(CCN(CCOCC(F)F)CC2)NC1=O — higher, -1%
- CCc1nnc2n1CCC1(CC2)CCN(C(=O)Cc2cccc(F)c2)CC1 — lower, -18%
- COc1c(C)cnc(COc2nc(C)no2)c1C — higher, 0%
- CC1=NNC(=O)[C@H]1CCNC(=O)C1(c2cc(F)cc(F)c2)CCCC1 — lower, -14%
- C[C@H]1CCCN(c2nn(CC(=O)Nc3ccc(F)cc3)c(=O)c3ccccc23)C1 — higher, -6%
- O=c1[nH]c(Cn2cc(Br)cn2)nc2cccc(F)c12 — higher, 2%
- O=C1[C@@H]2CCCN2C(=O)CN1CCS(=O)(=O)c1ccccc1 — higher, 0%
- COCCOc1cccc(CNC[C@H]2CC(C(N)=O)=NO2)c1 — higher, 5%
- CN(C[C@H]1COc2ccccc2O1)C(=O)c1cc(Cl)sc1S(N)(=O)=O — higher, -2%
- CC(C)c1nnc([C@H](C)NC(=O)Cc2ccc(O)c(Cl)c2)o1 — higher, -3%
- Cc1nc2ccc(NC(=O)C3C4CCC(O4)C3C(F)(F)F)cn2n1 (stereo not given) — higher, -4%
- CC(C(=O)N(C)C(C)c1cnn(C)c1)c1ccc(Cl)s1 (stereo not given) — higher, -7%
- Cc1cc(=O)cc(C(=O)N[C@@H]2COCC[C@@H]2OCC2CCC2)n1C — the same, -9%
- CCCN1CCCN(Cc2ccn(-c3ccccc3)n2)CC1=O — lower, -11%
- Cc1ccc(F)cc1-c1nnc(NC(=O)N2C3CCC2COC3)s1 — lower, -12%
- CC1(C)CN(S(=O)(=O)c2cc(Cl)c(N)c(Cl)c2)CC[S@@+]1[O-] — higher, -1%
- O=C(CCNC(=O)C1CCCC1)Nc1ccc(F)cc1 — lower, -12%
- OC1CC2CCC(C1)N2c1cnc2ccccc2n1 (stereo not given) — the same, -9%
- CC(CCOc1ccccc1)C(=O)N1CCCC1C(N)=O (stereo not given) — lower, -15%
- Nc1cccc(C(=O)NC[C@H]2CCN(Cc3cc(F)cc(F)c3)C2)c1 — higher, 10%
- Cc1ccc2[nH]c(C(=O)N3CCOC[C@@H](CN(C)C)C3)nc2c1 — lower, -11%
- CCS(=O)(=O)N1CCN(Cc2ccc3c(c2)CCO3)CC1 — higher, 5%
- O=C(N[C@@H](Cc1ccccc1)C(=O)N1CCCCC1)N1CCOCC1 — higher, 6%
- O=C1c2ccccc2C(=O)N1CCCCS(=O)(=O)N1CC[C@]2(CCOC2)C1 — higher, -4%
- OC[C@@H]1CCCCN1Cc1cc(F)cc(F)c1 — the same, -9%
- C[C@@]1(C(N)=O)CCCCN1Cc1csc(-c2cccs2)n1 — higher, -3%
- OCC1(Nc2nccc(C(F)(F)F)n2)CC1 — higher, 14%
- Cc1nc(-c2ccc(N)nc2)c2ccccc2n1 — lower, -17%
- Brc1ccc(-c2cn3c4ccccc4nc3n2CCN2CCCCC2)cc1 — lower, -15%
- COCCN(C)CC(=O)NCCn1cc(C)cn1 — higher, -7%
- CC(C)(O)Cn1nc(COc2cccc(F)c2)nc1-c1ccco1 — higher, -7%
- Cc1csc(CNC(=O)NC2CCCCC2)n1 — higher, 0%
- C[C@@]1(C(=O)NC2CCCCCCC2)Cn2c(ccc2-c2ccccc2)C(=O)N1CCc1ccccc1 — lower, -17%
- Cc1cc(-c2cc(C(=O)N[C@@H](C(=O)N(C)C)c3ccccc3)c3c(C)noc3n2)c(C)o1 — higher, -1%
- CC1OCCC1C(=O)NCCCNc1cccc(F)c1 (stereo not given) — lower, -18%
- Nc1nc(CCNC(=O)[C@H]2CC(=O)OC23CCCC3)cs1 — higher, -6%
- CCOc1cc2c(cc1OCC)[C@@H]1CC(=O)N(c3ccccc3C)C(=O)N1CC2 — higher, 9%
- COc1ccc(Br)cc1C1NC(=O)N(CC(=O)N2CCCC(C)C2)C1=O (stereo not given) — higher, -2%
- COc1ccc(N2C(=O)NC(CC(=O)NC3CCc4cc(OC)c(OC)cc43)C2=O)cc1 (stereo not given) — higher, -4%
- O=C(Nc1cccc(F)c1)c1c(O)c2cnn(Cc3ccccc3)c2[nH]c1=O — lower, -13%
- COc1nc(C)cc(NC2CC[S+]([O-])C2)n1 (stereo not given) — higher, -1%
- CC1CCCCC1NC(=O)CN1C(=O)NC2(CCCCCCC2)C1=O (stereo not given) — higher, -8%
- CC(=O)N1CC[C@]2(CO)CN(C(=O)c3ccc(F)cc3Cl)C[C@@H]2C1 — higher, -7%
- Cc1ccc(NC(=O)C(=O)N(CCC#N)Cc2cccnc2)cn1 — higher, -8%

Point of comparison: `CCS(=O)(=O)N1CCN(Cc2ccc3c(c2)CCO3)CC1`, Z score -0.77. Against it:
- O=C(COC[C@H]1CCCO1)NC1CCN(Cc2ccccc2)CC1 — higher, 0.45
- NC(=O)c1c(NC(=O)c2cccnc2)sc2c1CCCCC2 — higher, -0.08
- Cc1cccc(NS(=O)(=O)N2CCC3(CCCCC3)CC2)c1C(N)=O — higher, 1.56
- O=C(COc1ccccc1)N1CC(C(=O)N2CCN(c3ccccc3F)CC2)CC(c2ccccc2)C1 (stereo not given) — higher, 1.24
- COCC(C)C(=O)N1CCNC(=O)CC1c1ccccc1 (stereo not given) — higher, 1.81
- N#CCc1ccc(OC(F)(F)F)cc1 — higher, 1.39
- CC1c2cccn2CCN1CC(=O)N(C1CCCC1)C1CCS(=O)(=O)C1 (stereo not given) — higher, 0.64
- O=C(NCc1ccnc(NC2CC2)c1)c1ncccc1Br — higher, 2.58
- CC(C)(C)c1csc(N=C2CCCN2)n1 — higher, 0.41
- CCn1ccc(C(=O)NC[C@](O)(CC)CCCO)cc1=O — higher, 1.16
- O=C(NCCn1cccn1)c1cccc(S(=O)(=O)N2CCCOCC2)c1 — higher, 1.48
- C[C@@H]1OC2(CCN(CCOCC(F)F)CC2)NC1=O — higher, 0.12
- CCc1nnc2n1CCC1(CC2)CCN(C(=O)Cc2cccc(F)c2)CC1 — higher, 1.74
- COc1c(C)cnc(COc2nc(C)no2)c1C — higher, 0.03
- CC1=NNC(=O)[C@H]1CCNC(=O)C1(c2cc(F)cc(F)c2)CCCC1 — higher, 1.82
- C[C@H]1CCCN(c2nn(CC(=O)Nc3ccc(F)cc3)c(=O)c3ccccc23)C1 — higher, 0.91
- O=c1[nH]c(Cn2cc(Br)cn2)nc2cccc(F)c12 — higher, -0.2
- O=C1[C@@H]2CCCN2C(=O)CN1CCS(=O)(=O)c1ccccc1 — higher, -0.05
- COCCOc1cccc(CNC[C@H]2CC(C(N)=O)=NO2)c1 — higher, -0.63
- CN(C[C@H]1COc2ccccc2O1)C(=O)c1cc(Cl)sc1S(N)(=O)=O — higher, 0.43
- CC(C)c1nnc([C@H](C)NC(=O)Cc2ccc(O)c(Cl)c2)o1 — higher, 0.44
- Cc1nc2ccc(NC(=O)C3C4CCC(O4)C3C(F)(F)F)cn2n1 (stereo not given) — higher, 0.48
- CC(C(=O)N(C)C(C)c1cnn(C)c1)c1ccc(Cl)s1 (stereo not given) — higher, 0.93
- Cc1cc(=O)cc(C(=O)N[C@@H]2COCC[C@@H]2OCC2CCC2)n1C — higher, 1.61
- CCCN1CCCN(Cc2ccn(-c3ccccc3)n2)CC1=O — higher, 1.51
- Cc1ccc(F)cc1-c1nnc(NC(=O)N2C3CCC2COC3)s1 — higher, 1.19
- CC1(C)CN(S(=O)(=O)c2cc(Cl)c(N)c(Cl)c2)CC[S@@+]1[O-] — higher, 0.11
- O=C(CCNC(=O)C1CCCC1)Nc1ccc(F)cc1 — higher, 2.22
- OC1CC2CCC(C1)N2c1cnc2ccccc2n1 (stereo not given) — higher, 1.05
- CC(CCOc1ccccc1)C(=O)N1CCCC1C(N)=O (stereo not given) — higher, 1.31
- Nc1cccc(C(=O)NC[C@H]2CCN(Cc3cc(F)cc(F)c3)C2)c1 — lower, -1.21
- Cc1ccc2[nH]c(C(=O)N3CCOC[C@@H](CN(C)C)C3)nc2c1 — higher, 1.59
- O=C(N[C@@H](Cc1ccccc1)C(=O)N1CCCCC1)N1CCOCC1 — the same, -0.77
- O=C1c2ccccc2C(=O)N1CCCCS(=O)(=O)N1CC[C@]2(CCOC2)C1 — higher, 0.49
- OC[C@@H]1CCCCN1Cc1cc(F)cc(F)c1 — higher, 1.33
- C[C@@]1(C(N)=O)CCCCN1Cc1csc(-c2cccs2)n1 — higher, 0.34
- OCC1(Nc2nccc(C(F)(F)F)n2)CC1 — lower, -1.57
- Cc1nc(-c2ccc(N)nc2)c2ccccc2n1 — higher, 1.57
- Brc1ccc(-c2cn3c4ccccc4nc3n2CCN2CCCCC2)cc1 — higher, 2.27
- COCCN(C)CC(=O)NCCn1cc(C)cn1 — higher, 1.32
- CC(C)(O)Cn1nc(COc2cccc(F)c2)nc1-c1ccco1 — higher, 0.89
- Cc1csc(CNC(=O)NC2CCCCC2)n1 — higher, 0.01
- C[C@@]1(C(=O)NC2CCCCCCC2)Cn2c(ccc2-c2ccccc2)C(=O)N1CCc1ccccc1 — higher, 2.06
- Cc1cc(-c2cc(C(=O)N[C@@H](C(=O)N(C)C)c3ccccc3)c3c(C)noc3n2)c(C)o1 — higher, 0.15
- CC1OCCC1C(=O)NCCCNc1cccc(F)c1 (stereo not given) — higher, 2.08
- Nc1nc(CCNC(=O)[C@H]2CC(=O)OC23CCCC3)cs1 — higher, 1.26
- CCOc1cc2c(cc1OCC)[C@@H]1CC(=O)N(c3ccccc3C)C(=O)N1CC2 — lower, -1.41
- COc1ccc(Br)cc1C1NC(=O)N(CC(=O)N2CCCC(C)C2)C1=O (stereo not given) — higher, 0.3
- COc1ccc(N2C(=O)NC(CC(=O)NC3CCc4cc(OC)c(OC)cc43)C2=O)cc1 (stereo not given) — higher, 0.45
- O=C(Nc1cccc(F)c1)c1c(O)c2cnn(Cc3ccccc3)c2[nH]c1=O — higher, 1.74
- COc1nc(C)cc(NC2CC[S+]([O-])C2)n1 (stereo not given) — higher, 0.17
- CC1CCCCC1NC(=O)CN1C(=O)NC2(CCCCCCC2)C1=O (stereo not given) — higher, 1.46
- CC(=O)N1CC[C@]2(CO)CN(C(=O)c3ccc(F)cc3Cl)C[C@@H]2C1 — higher, 1.04
- Cc1ccc(NC(=O)C(=O)N(CCC#N)Cc2cccnc2)cn1 — higher, 1.59
